Assay results published in the supplement of paper PMC10185492.
The list shows a part of the results. Read counts after selection give these values, which scatter widely.

system: SARS-CoV-2 3CLpro (nsp5); assay: substrate phage enrichment score (protease-eluted vs HEPES control, +1 offset) (ratio); higher = better cleaved substrate; details: selection round: 4; protease elution time: 15 min
Protocol: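 Random heptapeptide substrate phage display (M13 pIII fusion, heptapeptide between an N-terminal biotinylated AviTag GLNDIFEAQKIEWHE and pIII; phages immobilised on streptavidin) eluted by cleavage with 50 nM protease in 20 mM HEPES at 37 °C. Selected phages were NGS sequenced, and the enrichment score is (reads in protease sample + 1)/(reads in HEPES blank-selection control + 1).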

Substance	substrate phage enrichment score
AYHQSRP	1.33
HATAHHH	4.3
HHDRQPH	> 33
RHCLSCL	9.83
QGFDETT	3
WKAAHHH	0.0275
KSNAHWQ	> 34
KPYTTRP	> 32
PLPNFQG	> 80
SILQSAK	> 72
PTVTHLQ	> 113
PRSGQPQ	> 24
LNQEEAA	0.3
SSASQLY	6.67
RNPTQLN	> 45
DSSLILQ	30.5
CSTRPNL	2.67
VPDTFQP	0.315
QRYHLEI	0.3
CENWSAQ	> 40
FVDQWHT	> 35
CHLEPRT	2.7
LTQPCQR	0.464
YPQVELR	9
SGSCWPA	> 79

Substance	substrate phage enrichment score
AWRPGES	9.33
LLHEDFI	10.5
THLQAKC	41.4
SCQRSPR	0.529
SDAASSN	> 40
AIGGYVC	2.69
CTHSRKV	1.46
ATEAFQT	1.63
HPMSQDQ	3.4
PERCNAR	0.194
CPTTHHA	4.67
SAAAHHQ	1.47
VNPLCKA	> 23
SLIEGTR	0.786
PSRPRYN	2.82
LSKEQWM	5.5
PSPVYIR	1.33
QPTTRHD	2.57
SSRAMQQ	1.25
CGAAAHH	0.294
LYIQGGS	2.11
GASAHHH	1.25
SARHEFS	> 33
LYQVSSG	> 35
IQGGSCV	1.15

Substance	substrate phage enrichment score
RCMPRSQ	> 21
SDGWLKD	> 21
VLEKNTL	6.45
RSVCTLH	> 25
SLNRFPH	18.2
QGPIMSC	> 23
WPMCESH	> 28
QVHVLER	10
GRYMLIK	2.25
LQEEVCI	5.5
TAGCYPE	> 25
PDKLKDG	> 26
RKNATLQ	> 170
SRPDWCR	0.103
FKPTVTT	1.23
QQYSILG	> 32
PTTTVRQ	> 26
RGTTTLQ	> 34
ECTRLRT	1.65
STPDVVT	3.4
SESAKYG	15.5
RIAEKNQ	> 30
TWMPKNG	17.5
ETTGCPR	1.19
VHQGRQN	0.107

Substance	substrate phage enrichment score
HSCSVNS	0.6
VDTLGGA	> 21
CRAAHHH	0.514
SRTMPRV	2.29
QCTFKRD	2
AYPKARP	0.833
SSCKAGV	> 24
HIGWSLE	5.29
AVLRQGT	> 26
RVHLQCG	29
QYFGCVP	4
AGMRKTW	0.846
QTFQLDS	2
TWGTHCQ	3.8
AYTKNNP	> 23
VLRPHII	0.625
PAQPLSY	> 28
IRGPSAA	> 29
DLKRKTE	1.5
HPPRYLN	> 21
EYPFTVP	3
SQAGPSG	1.59
KHIKGDR	2.74
PNCKVTA	16.5
SNVNGDE	2.12

Substance	substrate phage enrichment score
HRTENIR	1.44
KEVSPQT	0.429
CECPTKS	> 21
ALCTVRC	> 28
AQGAMRR	0.273
ADCQSSK	3
NKKPVSL	> 21
SSSKRGP	1.21
DATRAQT	> 94
SKSSRLQ	> 29
IGCPVEP	1
LCTVPRQ	> 266
DAERFCR	> 60
TGTNWHR	8.67
VTLQSMN	> 26
RSHRPQY	1.31
VEWSTGR	> 29
HKNHNCR	13.5
HSLRFRC	7.75
SGAAAHH	0.692
CPRQILS	> 35
NCYRWLW	0.0755
ALPSQPI	2.83
LEAAHHH	0.24
PAAAHHH	0.707

Substance	substrate phage enrichment score
ACDLCKC	> 42
PGADDHI	7.38
VDGGLER	1.21
GTHCMEP	> 43
RTPATIH	2.5
CQAGTSR	0.524
AQLGPST	> 31
ERIEIED	22
GAPELHL	0.692
NVQPCVH	1.12
GCPLRHQ	15
RETGTAY	0.145
ERQTAPN	> 33
ATRILEQ	> 43
SFAQPGK	> 24
YFQGGSA	1.13
LKASVLQ	> 85
EHLRGRA	0.1
CRNHALS	3.29
EITVEPN	1.11
SARTNLQ	> 24
TNDKVCG	> 22
PDVTGLD	> 28
KATTRLH	> 58
LGANTLQ	> 29

Substance	substrate phage enrichment score
SGSSRGM	2.94
TPGPQRS	2.29
VVQEQSP	7.67
VCSAWSG	3.3
ISQNECR	1.14
CGPSWEV	18
SKEPNEK	> 34
KYGTHKH	0.571
SNGMRYR	1.73
VNRTECW	4.86
PTTDGVG	1.55
VAVAPRT	0.846
TREPMQR	14
CEDLLTR	> 22
VSEPRVD	0.0789
SAAAHHY	1.88
PCARRSM	> 82
QAVRCLH	0.833
VCLQAVC	102
SSHNHHH	1.85
CHGTKLW	> 33
KRMETCG	53.5
YKLNSPG	> 44
TLTGGAR	0.472
NTRSGMT	> 38

Substance	substrate phage enrichment score
ADFQGGS	1.76
WRPARLQ	> 21
LHTGEVS	> 41
CALNHGQ	> 25
DSHVSMQ	> 31
REDHSRQ	> 29
ATERRNT	0.677
CPHNGLG	0.13
VVVRGLR	2.09
DCSQGTN	1.67
RPINTVA	7.67
PPLSPLR	2.08
FPSRATG	0.1
TKAAHHH	1.36
CRANSAL	14.5
SGSAAAH	0.167
QHDGQDY	11.5
RNEKMRS	> 44
TTPGTFV	1.9
WVSKGCC	> 24
TRSHPSE	1.13
REAAHHH	0.878
SYRNGER	10.4
CPLNTGG	> 25
GLAAHHH	0.667

Substance	substrate phage enrichment score
VSDEGDK	1.44
ATAAHHH	0.741
NSPSDAR	3.8
CRVLVCR	> 24
RSREAGK	6
VNPICSC	> 46
TNSPEHI	> 23
FDPWDVN	24.5
KTRTNVG	1.89
DCTPDSK	0.8
CTVQKRD	4.38
KCLTGIV	> 21
RKTPTTT	3.22
CGRYKRI	0.04
RTFTSYP	1.67
SESSPPR	> 46
TGCRTVP	0.167
VNELRSR	6.18
AEASRPL	0.0526
YSENRSR	0.538
CGHAHHH	13.7
LWSCGTA	4.5
NRDSYMR	> 23
VCANETG	0.389
SNWLEAA	> 51

Substance	substrate phage enrichment score
RRSTKLQ	6.67
ICGPASA	21.2
AAVYNQG	> 25
YPNKPPE	> 21
KTFCDLQ	6.29
MHPEWGA	1
LNVPHKD	0.31
PRERGSP	13
RNQTEAR	0.867
SETLQIR	> 31
LHESSQG	> 22
RTWDANT	2
PTGINRW	0.556
AVSKYQY	1.7
KCKCTLQ	> 118
HGSAQLQ	> 21
IKYDLKQ	1.63
SRTLTGN	1.6
ERLNNCR	0.0637
SPVKVGG	> 33
QENVDTH	0.0638
KQLDSCR	> 246
AAAKLQS	110
RNFQGGS	1.7
NTRGLTG	27

Substance	substrate phage enrichment score
CHHEQTR	0.923
AHCTRHS	5.2
SPLIWDH	> 30
TVLQAHG	198
VQLSHPK	0.8
ASRPGIF	5.29
TRRTTKC	1.9
GAAAHHQ	1.08
HETDSLI	> 22
LKSSDLQ	28
TAGLPST	1.65
TEQAERL	2.04
GCRLQSG	> 162
PHVSVMK	2.43
RHPYNAL	> 47
PWGTNCQ	> 30
QRQSHSI	0.68
TPPVRLQ	8.05
PQDLTGR	3
VPTTDRL	3
KQRTWQH	> 29
PTTPFNN	> 46
NYPGLMW	> 21
MSPRSNF	1.75
RPSCRDR	4.91

Substance	substrate phage enrichment score
RNHVTLD	10
CLQPIKG	6.23
ECDVQWY	1.71
KTRRCFQ	13.5
QTRLQCS	> 32
PDGFKAE	> 28
STVWEAR	0.353
ETHHPHH	0.882
VQDNTAA	0.0186
RKNDGVR	> 24
AAPCTTR	2.67
HSQAVTS	0.5
YGAAHHH	0.412
AKLQSNH	> 27
PRRPTIH	1.2
YARLPAT	> 21
SAPRWGP	1.44
KGSLNDR	3
WDTGPTD	0.294
TPSALKS	0.938
TPTPGCV	0.219
SGGVFFR	> 24
CNECAEW	1.3
YRRGPAL	0.583
NMATTLQ	> 37

Substance	substrate phage enrichment score
AYAPIHT	> 28
SGGRLPC	0.0938
SPLGSFQ	> 33
SELQSGA	5.07
ASSRPAN	> 75
TRYNPAL	11.8
ESTLQGN	> 37
VPKTKLQ	> 132
AEDNPYR	1.36
ESSRVVS	1.51
GAAHHHH	0.986
RPPSELG	0.737
TGNVSTE	> 44
YSQGWLQ	18.8
GDNEHWR	> 24
LCRPKTT	> 23
CLNQGGS	> 36
WEQSSEK	> 21
RAPVLQR	5.12
RKPTLLH	> 39
RCVPKLQ	17.5
PNMPASR	4.41
ETFRSQP	> 22
RERKEPT	0.5
NHARMTD	3.67

Substance	substrate phage enrichment score
KGEACSD	> 22
THGRPMR	1.69
SCDKLGP	4.5
GCSAAAH	0.941
FPGGSAA	1.09
LPCPYTR	> 27
GSLERRG	10
HRSQQSS	0.36
RLESVSP	> 37
SPECLRD	> 121
SSAAAHH	0.514
LTLERTG	1.69
NAAAQHH	1.3
KWAPHRE	> 23
KCRVSSR	20
TPYRLKH	> 22
LGKLSQK	1.79
ARSTLQS	> 502
EIQSGPG	3.46
RHECRAT	> 21
DLYFQGG	1.35
APSILKQ	> 51
TDEPPRS	0.231
VNAAAHH	3.86
GHDEILQ	1.15

Substance	substrate phage enrichment score
EKGSSEA	3.17
RDIHPVQ	1.78
TCSSPGP	1.69
VSHAPSS	9.33
VMGVIRD	4.12
GPQKHSV	6.67
HVRATLQ	> 196
RAKNTES	18.3
RSQSMPG	5.43
WTESQRT	> 39
AALNTGR	> 27
SAAAHKH	1.02
PRLEKLP	> 22
AVISWPG	1.48
GQHPSFG	> 25
SKDVCVQ	1.36
AGLGSKC	> 26
